We go through 18 sequences from article PMC12820563.

The list shows a part of the results. The list includes weakly bound sequences.

The assay has as its target T1, MBP-FoxP3dN (UniProt Q99JB6).
T1 sequence: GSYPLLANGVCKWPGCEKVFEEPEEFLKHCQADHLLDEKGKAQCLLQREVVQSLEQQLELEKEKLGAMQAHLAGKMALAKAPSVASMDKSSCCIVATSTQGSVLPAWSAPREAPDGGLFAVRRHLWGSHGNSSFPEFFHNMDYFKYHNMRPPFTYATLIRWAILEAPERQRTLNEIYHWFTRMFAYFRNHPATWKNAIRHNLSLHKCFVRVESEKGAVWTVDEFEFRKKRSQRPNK
The assay is described as follows: PD-seq (MBP pull-down with sequencing). To be noted: 20 mM Tris-HCl pH 7.5, 100 mM NaCl, 1.5 mM MgCl2, 0.4 uM protein, 0.1 uM dsDNA library, 30 min, room temperature, amylose pull-down; high values mean tight binding; double strand, one strand shown.
Turning to “GATGATTGTTCTCCCAGCTGATGAATTCCTGCTATCGAGTAAACAAATTTTCCTAATCTTTCTGTTCAAGCGCCATCTAC”, the binding signal (RPM ratio (pull-down/input)) came out at 0.518.

Take “GATGATTGTTCTCCCAGCTGATGAATTAATATTGTCGAGTAAACAAATTTTCCTAATCTTTCTGTTCAAGCGCCATCTAC”: the binding signal (RPM ratio (pull-down/input)) turned out to be 1.18. With “GATGATTGTTCTCCCAGCTGATGAATTAGACCCATCGAGTAAACAAATTTTCCTAATCTTTCTGTTCAAGCGCCATCTAC”, the binding signal (RPM ratio (pull-down/input)) stood at 0.381.

As for “GATGATTGTTCTCCCAGCTGATGAATTCTGCAGGTCGAGTAAACAAATTTTCCTAATCTTTCTGTTCAAGCGCCATCTAC”, the binding signal (RPM ratio (pull-down/input)) turned out to be 1.07.

Consider “GATGATTGTTCTCCCAGCTGATGAATTTGTCGGTTCGAGTAAACAAATTTTCCTAATCTTTCTGTTCAAGCGCCATCTAC”, for which the binding signal (RPM ratio (pull-down/input)) stood at 3.1.

“GATGATTGTTCTCCCAGCTGATGAATTACCCCCGTCGAGTAAACAAATTTTCCTAATCTTTCTGTTCAAGCGCCATCTAC”: the binding signal (RPM ratio (pull-down/input)) worked out at 0.246. Consider “GATGATTGTTCTCCCAGCTGATGAATTCCCGCGTTCGAGTAAACAAATTTTCCTAATCTTTCTGTTCAAGCGCCATCTAC”, for which the binding signal (RPM ratio (pull-down/input)) amounted to 1.33.

In the case of “GATGATTGTTCTCCCAGCTGATGAATTCGCACCGTCGAGTAAACAAATTTTCCTAATCTTTCTGTTCAAGCGCCATCTAC”, the binding signal (RPM ratio (pull-down/input)) is 0.391.

For the sequence “GATGATTGTTCTCCCAGCTGATGAATTCTGTGTCTCGAGTAAACAAATTTTCCTAATCTTTCTGTTCAAGCGCCATCTAC”, the binding signal (RPM ratio (pull-down/input)) came out at 2.76. The same measure for “GATGATTGTTCTCCCAGCTGATGAATTACCTAGTTCGAGTAAACAAATTTTCCTAATCTTTCTGTTCAAGCGCCATCTAC”: 0.315.

For “GATGATTGTTCTCCCAGCTGATGAATTCAGATAATCGAGTAAACAAATTTTCCTAATCTTTCTGTTCAAGCGCCATCTAC”, the binding signal (RPM ratio (pull-down/input)) came to 0.3. The result for “GATGATTGTTCTCCCAGCTGATGAATTAGATTAATCGAGTAAACAAATTTTCCTAATCTTTCTGTTCAAGCGCCATCTAC” reads 0.347. The result for “GATGATTGTTCTCCCAGCTGATGAATTATGTGTCTCGAGTAAACAAATTTTCCTAATCTTTCTGTTCAAGCGCCATCTAC” reads 3.3. The result for “GATGATTGTTCTCCCAGCTGATGAATTGCTCAATTCGAGTAAACAAATTTTCCTAATCTTTCTGTTCAAGCGCCATCTAC” reads 0.549; that for “GATGATTGTTCTCCCAGCTGATGAATTTAGCGCTTCGAGTAAACAAATTTTCCTAATCTTTCTGTTCAAGCGCCATCTAC”, 0.95; that for “GATGATTGTTCTCCCAGCTGATGAATTAGAGTTGTCGAGTAAACAAATTTTCCTAATCTTTCTGTTCAAGCGCCATCTAC”, 0.891. Regarding “GATGATTGTTCTCCCAGCTGATGAATTTACCTACTCGAGTAAACAAATTTTCCTAATCTTTCTGTTCAAGCGCCATCTAC”, the binding signal (RPM ratio (pull-down/input)) was 0.557. The same measure for “GATGATTGTTCTCCCAGCTGATGAATTCAACAGTTCGAGTAAACAAATTTTCCTAATCTTTCTGTTCAAGCGCCATCTAC”: 0.431.
